{"source": "PubChem BioAssay AID1460", "about": "(National Center for Advancing Translational Sciences (NCATS), 2008)", "note": "Values joined by “and” are separate entries in the source; they are usually repeats but may differ in a detail not shown here. Identical values can stand only once. In all, about 270,000 compounds went through this assay and about 5,800 (2.1%) were called active. The inconclusive results got no clear call from the source; some entries with a clear call stand among them for comparison. Calls come from the whole dose curve; as a rule, active = well fitted inhibition curve with a large enough effect; inconclusive = small, poorly fitted or top-dose-only effect; inactive = flat fitted curve, though single readings scatter. Where the call is inconclusive, the potency comes from a doubtful curve fit. % is set by controls: 0 for no effect and ±100 for the full control effect; potency is the fitted concentration of half-maximal effect; tags give direction and shape of the fitted curve."}
{"biological_target": "Microtubule-associated protein tau (Homo sapiens) (UniProt P10636)", "sequence (P10636 whole entry, looked up, the tested form may be a part)": "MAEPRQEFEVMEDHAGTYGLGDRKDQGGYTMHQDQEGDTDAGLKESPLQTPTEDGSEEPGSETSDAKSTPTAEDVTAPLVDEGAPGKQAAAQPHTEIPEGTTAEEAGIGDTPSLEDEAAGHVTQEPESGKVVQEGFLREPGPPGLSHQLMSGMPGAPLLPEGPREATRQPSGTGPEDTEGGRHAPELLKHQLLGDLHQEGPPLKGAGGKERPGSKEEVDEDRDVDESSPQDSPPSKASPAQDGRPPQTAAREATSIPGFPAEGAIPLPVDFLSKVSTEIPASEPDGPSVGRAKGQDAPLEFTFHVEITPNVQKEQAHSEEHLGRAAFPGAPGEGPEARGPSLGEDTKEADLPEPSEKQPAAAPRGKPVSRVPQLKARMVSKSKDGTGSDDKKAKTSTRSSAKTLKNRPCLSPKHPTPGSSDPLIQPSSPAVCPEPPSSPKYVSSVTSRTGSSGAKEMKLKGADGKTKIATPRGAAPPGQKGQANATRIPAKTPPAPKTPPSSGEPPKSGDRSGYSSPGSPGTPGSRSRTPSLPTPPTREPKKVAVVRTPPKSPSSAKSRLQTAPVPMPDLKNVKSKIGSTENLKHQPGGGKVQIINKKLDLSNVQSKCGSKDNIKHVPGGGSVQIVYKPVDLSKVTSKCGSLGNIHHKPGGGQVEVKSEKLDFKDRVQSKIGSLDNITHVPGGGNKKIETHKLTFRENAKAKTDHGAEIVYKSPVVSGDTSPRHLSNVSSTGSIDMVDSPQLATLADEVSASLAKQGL", "assay": "qHTS for Inhibitors of Tau Fibril Formation, Thioflavin T Binding; note: nearly all actives have a fitted effect of over 55% in size", "conditions": "recombinant tau K18 P301L (four-repeat tau fragment), heparin-induced fibrillization, ThT fluorescence; series mostly up to 57.4 µM; activity, negative = inhibition: at the top concentration", "how_it_was_run": "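Aggregation was driven by heparin (20 uM final) acting on recombinant tau […] bearing P301L in 100 mM sodium acetate pH 7; fibrils were detected with Thioflavin T.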"}
{"smiles": "O=S(=O)(Nc1ccc(F)cc1F)c1ccc(-n2cccn2)cc1", "activity, negative = inhibition": "inactive: 1.66%"}
{"smiles": "Cc1nc2ccn(Cc3cccnc3)c(=O)c2cc1C(=O)Nc1ccc(F)cc1F", "activity, negative = inhibition": "inactive: 5.06%"}
{"smiles": "CC(C)/C=N/NC(=O)c1ccc(Cl)cc1", "Potency": "inconclusive: 14.1 µM [inhibitor, partial curve]"}
{"smiles": "Cc1cccc(N2CCN(C(=O)C3CCN(c4ncnc5c4nc4n5CCCCC4)CC3)CC2)c1C", "Potency": "inconclusive: 20 µM [inhibitor, partial curve]"}
{"smiles": "CCN(CC)c1ccc(-n2cc3c(=O)n(C)c(=O)n(C)c3c2)cc1", "Potency": "active: 5.01 µM"}
{"smiles": "Cc1nn(Cc2ccc(Cl)cc2Cl)c(C)c1NC(=O)NC12CC3CC(CC(C3)C1)C2", "activity, negative = inhibition": "inactive: -15.9%"}
{"smiles": "O=C(OCC#CCSc1nnc(-c2ccc(Br)cc2)o1)c1ccco1", "Potency": "inconclusive: 3.55 µM [inhibitor, full curve]"}
{"smiles": "CCOC(=O)N1CCN(C(=O)CSc2nc3c(cnn3-c3ccccc3)c(=O)[nH]2)CC1", "activity, negative = inhibition": "inactive: 1.85%"}
{"smiles": "CCc1ccc(NC(=O)Nc2nnc(N(C)C3CCCCC3)s2)cc1", "Potency": "inconclusive: 39.8 µM [activator, single point]"}
{"smiles": "Cc1ccccc1-n1c(Cn2c(=O)sc3ccccc32)nnc1SCC(=O)Nc1nccs1", "activity, negative = inhibition": "inactive: 0.0938%"}
{"smiles": "O=C(OCC(=O)N1CCc2ccccc2C1)c1ccc(N2CCOCC2)c([N+](=O)[O-])c1", "Potency": "inconclusive: 15.8 µM [inhibitor, partial curve]"}
{"smiles": "COc1ccc(S(=O)(=O)NCc2ccco2)cc1-c1nnc2c3ccccc3c(C)nn12", "activity, negative = inhibition": "inactive: 1.18%"}
{"smiles": "O=[N+]([O-])c1ccc(C(=S)N2CCN(c3ccc(F)cc3)CC2)cc1", "Potency": "inconclusive: 17.8 µM [inhibitor, single point]"}
{"smiles": "CC1(C)CC(=O)C2=C(C1)Oc1nc3ccccc3cc1C2C(C#N)C#N", "note": "(stereo unspecified)", "Potency": "inconclusive: 25.1 µM [inhibitor, partial curve]"}
{"smiles": "Cc1ccc(OCC(=O)Nc2ccc3nc(SCCOc4ccccc4)sc3c2)cc1", "activity, negative = inhibition": "inactive: -16.6%"}
{"smiles": "CCOC(=O)Cn1c(=O)oc2cc(S(=O)(=O)N3CCC(C(=O)OCC)CC3)ccc21", "activity, negative = inhibition": "inactive: 4.56%"}
{"smiles": "O=C(CSc1nnc(Cc2ccccc2)n1Cc1ccco1)NC12CC3CC(CC(C3)C1)C2", "Potency": "inconclusive: 11.2 µM [inhibitor, partial curve]"}
{"smiles": "Oc1ccc(C2Nc3cccc4cccc(c34)N2)c(O)c1", "Potency": "active: 14.1 µM"}
{"smiles": "COc1ccc(-c2ccc([C@H]3[C@@H]4C=CCC[C@@]4(C)C(=O)N3Cc3ccccc3)c(F)c2)cc1OC", "Potency": "inconclusive: 35.5 µM [inhibitor, single point]"}
{"smiles": "Clc1ccc(-c2noc(CSc3nnc(Cc4cccs4)n3-c3ccccc3)n2)cc1", "Potency": "inconclusive: 25.1 µM [inhibitor, partial curve, poor fit]"}
{"smiles": "CCOCCCNC(=O)c1ccccc1SCC", "activity, negative = inhibition": "inactive: -1.34%"}
{"smiles": "CO[C@H]1C=CO[C@@]2(C)Oc3c(C)c(O)c4c(O)c(c5c(nc6cc(C)ccn65)c4c3C2=O)NC(=O)C(C)=CC=C[C@H](C)[C@H](O)[C@@H](C)[C@@H](O)[C@@H](C)[C@H](OC(C)=O)[C@@H]1C", "Potency": "inconclusive: 25.1 µM [inhibitor, partial curve]"}
{"smiles": "CC1(C)CC(=O)C(C=Nc2ccc(C(=O)c3ccccc3)cc2N=CC2=C(O)CC(C)(C)CC2=O)=C(O)C1", "Potency": "inconclusive: 28.2 µM [inhibitor, partial curve]"}
{"smiles": "COc1ccc(C(=O)N2CC3(CC(c4cccc(NC(=O)COc5ccc(Cl)cc5)c4)=NO3)C[C@@H]2C(N)=O)cc1", "note": "(stereo partly specified)", "Potency": "inconclusive: 39.8 µM [inhibitor, single point]"}
{"smiles": "Cc1cccc(NC(=O)C2CCCN(S(=O)(=O)c3ccc(Br)s3)C2)c1", "note": "(stereo unspecified)", "Potency": "inconclusive: 44.7 µM [inhibitor, single point]"}
{"smiles": "O=C1C(=O)c2ccccc2C([O-])=C1[n+]1ccccc1", "Potency": "inconclusive: 17.8 µM [inhibitor, single point]"}
{"smiles": "CC(O/N=C/c1ccc(OC(F)F)cc1)C(=O)Nc1cccc(S(=O)(=O)N2CCOCC2)c1", "note": "(stereo unspecified)", "activity, negative = inhibition": "inactive: -3.83%"}
{"smiles": "Cc1cccc(NC(=O)c2ccc(N3CCOCC3)c([N+](=O)[O-])c2)n1", "Potency": "inconclusive: 22.4 µM [inhibitor, partial curve, poor fit]"}
{"smiles": "COCCCNC(=O)CSc1nc(-c2ccc(OC)c(OC)c2)[nH]c1-c1ccc(F)cc1", "Potency": "inconclusive: 15.8 µM [inhibitor, single point]"}
{"smiles": "O=c1[nH]c2ccc(NS(=O)(=O)c3ccc([N+](=O)[O-])cc3)cc2[nH]1", "Potency": "inconclusive: 31.6 µM [inhibitor, single point]"}
{"smiles": "Cc1ccc(NNS(=O)(=O)c2ccc(C)cc2)cc1", "Potency": "active: 20 µM"}
{"smiles": "O=C(Nc1nc2c(s1)CN(Cc1ccccc1)CC2)c1c(F)cccc1F", "Potency": "inconclusive: 31.6 µM [inhibitor, single point]"}
{"smiles": "Cc1ccc(C2=NC(c3ccccc3)=Nc3ccc(Cl)cc3N2)cc1", "Potency": "inconclusive: 39.8 µM [inhibitor, single point]"}
{"smiles": "CNc1ccc(OC(F)F)cc1C(=O)c1ccccc1", "Potency": "inconclusive: 28.2 µM [inhibitor, partial curve]"}
{"smiles": "COc1ccc2[nH]c(C)c(CCNC(=S)Nc3ccccc3OC)c2c1", "Potency": "inconclusive: 7.08 µM [inhibitor, partial curve, poor fit]"}
{"smiles": "CCOc1ccccc1NC(=O)CCN1CCN(S(=O)(=O)c2ccc(Br)cc2)CC1", "activity, negative = inhibition": "inactive: -0.847%"}
{"smiles": "Cc1ccccc1C(=O)Nc1ccc(C(=O)N/N=C/c2ccc(O)c(Br)c2)cc1", "Potency": "inconclusive: 1.41 µM [inhibitor, full curve]"}
{"smiles": "Cc1cc(N2CCOCC2)c2c(N)cc(C)c(C)c2n1", "Potency": "inconclusive: 20 µM [inhibitor, partial curve]"}
{"smiles": "CCn1c(SCC(=O)N2CCOCC2)nc2oc3c(Cl)cc(Cl)cc3c(=O)c2c1=O", "Potency": "inconclusive: 25.1 µM [inhibitor, partial curve]"}
{"smiles": "Cc1nc(-c2coc3c(O)c(O)ccc3c2=O)cs1", "Potency": "inconclusive: 22.4 µM [inhibitor, partial curve]"}
{"smiles": "Cc1cc(O)ccc1Nc1nc(-c2cccs2)cs1", "Potency": "active: 14.1 µM"}
{"smiles": "CCOc1ccc(-c2nonc2NC(=O)c2oc3cc(Br)ccc3c2C)cc1", "activity, negative = inhibition": "inactive: 16%"}
{"smiles": "COc1ccc(-n2nc(C(=O)c3cccs3)cc(-c3nc4ccccc4[nH]3)c2=N)cc1", "Potency": "active: 3.98 µM"}
{"smiles": "O=C(/C=C/c1ccc(Cl)cc1Cl)N1CCN(c2ccccc2[N+](=O)[O-])CC1", "activity, negative = inhibition": "inactive: 3.34%"}
{"smiles": "CC1(OC(=O)C2CCCC2)C(=O)C=C2C=C(c3ccsc3)N(CC3CC3)C=C2C1=O", "note": "(stereo unspecified)", "Potency": "inconclusive: 15.8 µM [inhibitor, partial curve] and inconclusive: 3.98 µM [inhibitor, single point]"}
{"smiles": "COC(=O)c1cn(CCOc2ccccc2F)c2ccccc12", "Potency": "inconclusive: 11.2 µM [inhibitor, partial curve]"}
{"smiles": "COc1ccc(C2CCCN2C(=S)Nc2ccc(C)cc2C)cc1OC", "note": "(stereo unspecified)", "Potency": "inconclusive: 39.8 µM [inhibitor, partial curve, poor fit]"}
{"smiles": "Cc1ccc(C(=O)N/N=C2\\SCC(=O)N2c2cc(C)ccc2C)cc1", "activity, negative = inhibition": "inactive: -10.3%"}
{"smiles": "CC(=O)N1CCCc2cc(S(=O)(=O)NCc3ccc(OC(C)C)cc3)ccc21", "activity, negative = inhibition": "inactive: 4%"}
{"smiles": "Oc1cccc(NC(=S)N=Nc2c(O)[nH]c3ccccc23)c1", "Potency": "active: 10 µM"}
{"smiles": "CCN(CC)C(=O)C1CCCN(c2ccc([N+](=O)[O-])cc2/C=N/NC(=O)c2cccc([N+](=O)[O-])c2)C1", "note": "(stereo unspecified)", "Potency": "inconclusive: 14.1 µM [inhibitor, partial curve]"}
{"smiles": "Nc1cccnc1Sc1ccc([N+](=O)[O-])cn1", "Potency": "inconclusive: 10 µM [inhibitor, partial curve]"}
{"smiles": "COc1ccc(S(=O)(=O)N2c3cc(C)ccc3OCC2C(C)(C)C)cc1", "note": "(stereo unspecified)", "Potency": "inconclusive: 39.8 µM [inhibitor, single point]"}
{"smiles": "CCOC(=O)C(CCCCOc1ccc([N+](=O)[O-])cc1)C(=O)OCC", "Potency": "inconclusive: 20 µM [inhibitor, partial curve]"}
{"smiles": "CCCOc1ccc(CNC(=O)C2CCN(c3nn4c(=O)cc(C)nc4s3)CC2)cc1", "Potency": "inconclusive: 7.08 µM [inhibitor, full curve]"}
{"smiles": "CCOC1(OCC)C(c2ccc(Cl)cc2)C(C#N)(C#N)C1(OCC)OCC", "note": "(stereo unspecified)", "Potency": "inconclusive: 25.1 µM [inhibitor, single point]"}
{"smiles": "CC1CN(/C(=N\\S(=O)(=O)c2ccccc2)c2ccccc2)CC(C)O1", "note": "(stereo unspecified)", "activity, negative = inhibition": "inactive: -3%"}
{"smiles": "CCOC(=O)N1CCN(c2cc(=O)n(-c3ccccc3Cl)c(=O)[nH]2)CC1", "Potency": "inconclusive: 28.2 µM [inhibitor, single point]"}
{"smiles": "O=C(CC1(O)C(=O)Nc2cc(Cl)cc(Cl)c21)c1ccncc1", "note": "(stereo unspecified)", "Potency": "inconclusive: 22.4 µM [inhibitor, single point]"}
{"smiles": "CCOc1ccccc1Nc1ccc2cc(S(=O)(=O)N3CCCCC3)ccc2n1", "activity, negative = inhibition": "inactive: -0.457%"}
{"smiles": "CN1C(=O)/C(=N/OC(=O)c2ccccc2Br)c2ccccc21", "Potency": "inconclusive: 14.1 µM [inhibitor, partial curve]"}
{"smiles": "Cc1ccc(OCC(=O)Nc2ccc(-c3nc4ccc(C)cc4o3)cc2)cc1", "Potency": "inconclusive: 0.708 µM [inhibitor, full curve]"}
{"smiles": "CCOc1ccc(C(=O)Nc2ccc3nc(SCC(=O)N4CCOCC4)sc3c2)cc1", "activity, negative = inhibition": "inactive: -4.18%"}
{"smiles": "O=Nc1c(O)n(Cc2ccccc2)c2ccccc12", "activity, negative = inhibition": "inactive: -6.34%"}
{"smiles": "Clc1cccc(NCc2nnc(SCc3ccc(Cl)cc3Cl)o2)c1", "Potency": "inconclusive: 31.6 µM [inhibitor, partial curve, poor fit]"}
{"smiles": "CSc1nc(N2CCN(c3ccccc3Cl)CC2)c2ccccc2n1", "Potency": "inconclusive: 14.1 µM [inhibitor, partial curve]"}
